Measurements: PubChem BioAssay AID1346428 (National Center for Advancing Translational Sciences (NCATS), 2018)
Values joined by “and” are separate entries in the source; they are usually repeats but may differ in a detail not shown here. Identical values can stand only once. The campaign covered roughly 48,000 compounds. About 1,200 (2.5%) were called active. Inconclusive results (about 2%) are left out.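 Rule for the calls: active = activation of at least 60% and not above a set upper limit (about 1 call in 100 departs from these limits); inconclusive = activation of 40% to 60%, or above that upper limit; inactive = activation under 40%.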 Some of the results follow.

Target: Probable G-protein coupled receptor 32 (Homo sapiens) (UniProt O75388)
Sequence of UniProt O75388 (O75388 whole entry, looked up): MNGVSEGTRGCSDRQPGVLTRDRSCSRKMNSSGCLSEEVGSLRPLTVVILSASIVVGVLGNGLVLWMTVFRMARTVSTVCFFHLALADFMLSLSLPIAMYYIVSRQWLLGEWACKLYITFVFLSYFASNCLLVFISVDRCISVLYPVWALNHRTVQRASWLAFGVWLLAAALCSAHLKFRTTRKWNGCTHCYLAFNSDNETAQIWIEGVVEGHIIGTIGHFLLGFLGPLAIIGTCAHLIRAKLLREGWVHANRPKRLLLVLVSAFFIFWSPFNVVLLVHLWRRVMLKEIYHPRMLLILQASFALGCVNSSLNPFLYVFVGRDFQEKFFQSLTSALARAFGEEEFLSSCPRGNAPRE
Assay: qHTS for Agonists of Human Resolvin D1 Receptor DRV1; note: 0% is about no effect
Conditions: CHO-K1 GPR32 beta-arrestin PathHunter luminescence, 90 min; at 76.9 µM; active compounds read high; zero percent set by DMSO-only wells
How it was run: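 Agonism was scored by beta-Gal fragment complementation (chemiluminescent read, 1 h detection at ambient temperature) reporting beta-arrestin binding to GPR32 in engineered CHO-K1 cells. Compound treatment lasted 90 min at 37 C, normalized to a DMSO basal control.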

Row | Structure (SMILES) | activation
1 | CC(=O)Nc1ccccc1OCc1cc(=O)n2c(C)csc2n1 | inactive: 24.5%
2 | COc1ccc2nc(SCc3ncc(C)c(OC)c3C)[nH]c2c1 | inactive: 39.9%
3 | Cc1ccc(NC(=O)CSc2ncc3c(n2)-c2ccccc2N(C)S3(=O)=O)c(Cl)c1 | inactive: -15.2%
4 | COc1ccc(CN(C)c2ccc(-c3nc(C)no3)cc2[N+](=O)[O-])cc1 | inactive: -2.24%
5 | Cc1cc(=O)n2nc(N3CCC(C(=O)NCc4ccccc4F)CC3)sc2n1 | inactive: -10.7%
6 | CN1CCN(CCNC(=O)c2cnn(-c3cccc(Cl)c3)c2C2CCN(C(=O)OC(C)(C)C)CC2)CC1 | inactive: -4.41%
7 | CCN(CCCNC(=O)CSc1cc(=O)n(C)c2cc(Cl)ccc12)c1ccccc1 | inactive: -1.6%
8 | CCc1ccc(CNC(=O)Cn2nc(C)c3c(C)n(-c4ccc(C)cc4)nc3c2=O)cc1 | inactive: -10.3%
9 | CCC(CC)C(=O)Nc1cccc(-c2nc3ncccn3c2C)c1 | inactive: 25.2%
10 | O=C(Nc1ccc(F)cc1F)c1cc2ccc3cccnc3c2[nH]1 | inactive: -4.6%
11 | Cc1cccc(C)c1NC(=O)N1CCC(C(N)=O)(N2CCCCC2)CC1 | inactive: -16.2%
12 | Cc1ccccc1Nc1cc(C(=O)NC2CCC(C)CC2)c2ccccc2n1 (centres undefined) | inactive: 22.3%
13 | CCOC(=O)c1ccc(NC(=O)c2c(NCc3cccc(OC)c3)sc3c2CCC3)cc1 | inactive: -21.7%
14 | CC(C)c1ccc(C(=O)Nc2ccc(-c3nc4ccccc4s3)c(Cl)c2)cc1 | inactive: 23.9%
15 | COc1cccc(-n2c(-c3ccco3)nc3c(cnn3-c3ccccc3C)c2=O)c1 | inactive: -4.42%
16 | COc1cccc(C(=O)NCC(c2ccc(N(C)C)cc2)N2CCc3ccccc32)c1OC (centres undefined) | inactive: -27.5%
17 | COc1ccc2oc(-c3ccc(C)c(NC(=O)c4sc5ccccc5c4Cl)c3)nc2c1 | inactive: -5.75%
18 | COc1ccc(-c2nc(Cn3c(SCc4cccc(F)c4)nc4cccnc43)c(C)o2)cc1 | inactive: -17.4%
19 | Cn1cc(S(=O)(=O)N2CCCCCC2)cc1C(=O)Nc1ccccc1F | inactive: 9.18%
20 | COc1ccc(N2CCN(c3oc(-c4ccccc4C)nc3S(=O)(=O)c3ccccc3)CC2)cc1 | inactive: -11.6%
21 | Cc1cccc(OCC(=O)Nc2c(C(=O)N3CCN(c4ccccc4)CC3)oc3ccccc23)c1 | inactive: -23.7%

Row | Structure (SMILES) | activation
22 | CCCCN(CCCC)S(=O)(=O)c1ccc(C(=O)Nc2sc3c(c2C(N)=O)CCN(CC)C3)cc1 | inactive: 5.37%
23 | COc1cc(NC(=O)Cn2nc(Cc3cccnc3)c3ccccc3c2=O)cc(OC)c1OC | inactive: -20.5%
24 | CCc1nc2ccccc2n1CCCCOc1ccc(Cl)cc1 | inactive: -39.6%
25 | Cc1cccc(CSc2nc3ccncc3n2Cc2ccc(C(=O)O)cc2)c1 | inactive: -7.62%
26 | O=C(Nc1ccc(-c2cn3cccnc3n2)cc1)c1ccccc1F | inactive: -0.543%
27 | Cc1ccc(OCc2ccc(-c3nc(C#N)c(N4CCN(c5cccc(Cl)c5)CC4)o3)o2)cc1 | inactive: 1.5%
28 | CCOc1ccccc1CNC(=O)CCCn1nc(C)c2sc3ccccc3c2c1=O | inactive: -18.3%
29 | COc1cc(NC(=O)Cn2nc(C(F)(F)F)c3c2CCCC3)cc(OC)c1OC | inactive: 18.8%
30 | COc1ccccc1NC(=O)Cn1c(=O)n(CCc2ccccc2)c(=O)c2sc3ccccc3c21 | inactive: 8.81%
31 | Cc1nc2c([nH]1)c(=O)n(C)c(=O)n2Cc1ccco1 | inactive: -5.72% and inactive: 0.204%
32 | CC1=C(C(=O)Nc2cccc(Cl)c2)C2(CCCCCC2)OC1=O | inactive: -24.1%
33 | CCOC(=O)c1cccc(NC(=O)c2cc(S(=O)(=O)N3CCCC3)cn2C)c1 | inactive: -12.7%
34 | Cc1ccc(CSc2oc(-c3ccco3)nc2S(=O)(=O)c2ccc(Cl)cc2)cc1 | inactive: -15.6%
35 | COc1ccc(-c2onc(C)c2C)cc1S(=O)(=O)Nc1ccc(OC(F)(F)F)cc1 | inactive: 11.5%
36 | CCCOC(=O)c1ccc(NC(=O)Cn2nnc3sc4c(c3c2=O)CCC(C(C)(C)C)C4)cc1 (centres undefined) | inactive: -27.6%
37 | Cc1ccc(CNC(=O)CSc2ccc(-c3sc(-c4ccccc4)nc3C)nn2)cc1 | inactive: -5.03%
38 | COC(=O)c1cc2sc(C)cc2n1Cc1ccccc1 | inactive: -29.9%
39 | CCOC(=O)CNC(=O)c1cc2c(=O)n(CC)c3ccccc3c2s1 | inactive: -3.47%
40 | COc1cccc(CNS(=O)(=O)c2c(C)nc3scc(C)n3c2=O)c1 | inactive: -3.17%
41 | CCOc1ccc(CCNC(=O)CN2C(=O)c3cccnc3Oc3ccc(C)cc32)cc1OCC | inactive: -23.8%
42 | COc1ccc(NC(=O)c2ccco2)cc1NC(=O)C(C)Oc1ccc(Cl)cc1Cl (centres undefined) | inactive: 6.55%

Row | Structure (SMILES) | activation
43 | O=S(=O)(c1ccc(Br)cc1)c1nc(-c2ccco2)oc1SCc1ccccc1F | inactive: -30.9%
44 | CC(=O)c1cc(-c2ccc(F)cc2)n(CC(=O)NC2CCCCCC2)c1C | inactive: -13.3%
45 | CCCOc1ccc(/C=C/C(=O)Nc2sc3c(c2C(=O)OCC)CCC(C)C3)cc1OC (centres undefined) | inactive: 0.689%
46 | CCCOc1ccc(-c2cccc(NS(=O)(=O)c3cccs3)c2)nn1 | inactive: 0.148%
47 | O=C(Nc1cccc(C(F)(F)F)c1)c1cc2nc(-c3ccccc3)cc(C(F)(F)F)n2n1 | inactive: 7.54%
48 | CCOc1ccccc1CNC(=O)CCCn1c(=O)c2cccn2c2cccnc21 | inactive: -12.8%
49 | C[N+]1(C)C2CC(OC(=O)[C@H](CO)c3ccccc3)CC1C1OC12 (some centres undefined) | inactive: -10.8% and inactive: 0.53%
50 | CN(C)CCOC(=O)C(c1ccccc1)C1(O)CCCC1 (centres undefined) | inactive: 24.2%
51 | COc1ccc(-c2cccc(NS(=O)(=O)c3cccs3)c2)nn1 | inactive: -1.68%
52 | Clc1ccc(N2CCN(Cc3nnc(-c4ccc5c(c4)OCO5)o3)CC2)cc1 | inactive: 3.82%
53 | COc1ccc(NC(=O)CC2Nc3cccc4cccc(c34)NC2=O)cc1 (centres undefined) | inactive: 28.7%
54 | CCCCN(CC)C(=O)c1c[nH]c2ccc(S(=O)(=O)Nc3cccc(OC)c3)cc2c1=O | inactive: -10.8%
55 | COc1ccc(NC(=O)C2=C(C)Nc3c(C(=O)Nc4ccc(C)cc4)cnn3C2c2cccc(Cl)c2)cc1 (centres undefined) | inactive: -5.61%
56 | O=C(CCCn1c(=O)c2cccn2c2ccccc21)Nc1cccc(Cl)c1 | inactive: -19.2%
57 | Clc1ccccc1CSc1nncn2c1cc1occc12 | inactive: -23.3%
58 | CC(=O)N1c2ccccc2CC1C(=O)N1CCN(c2cccc(C)c2C)CC1 (centres undefined) | active: 116%
59 | Cc1oc2ccc(O)c(CN3CCOCC3)c2c1C(=O)Nc1ccc(C(C)C)cc1 | inactive: -9.24%
60 | CCc1cc(Cl)c(OC)c(C(=O)NC[C@@H]2CCCN2CC)c1O | inactive: 8.56%
61 | Cc1ccc2onc(CC(=O)N3CCN(c4ccccc4F)CC3)c2c1 | inactive: -28.2%
62 | COc1ccc(-c2cc(C)no2)cc1S(=O)(=O)N1CCN(c2ccc(C(C)=O)cc2)CC1 | inactive: -6.99%
63 | Cc1ccc2oc(-c3cccc(NC(=O)c4cccc5c(Br)cccc45)c3)nc2c1 | inactive: 10.6%

Row | Structure (SMILES) | activation
64 | COc1cccc(NC(=O)CSc2nc3c([nH]c4ccccc43)c(=O)n2-c2cccc(Cl)c2)c1 | inactive: -8.21%
65 | Cc1ccc(Cn2ccn(Cc3cccc(C(F)(F)F)c3)c(=O)c2=O)cc1 | inactive: -11.1%
66 | C=CCOc1ccc(C2c3c(oc4ccc(C)cc4c3=O)C(=O)N2CCCN2CCOCC2)cc1 (centres undefined) | inactive: -3.17%
67 | Cc1ccc(-c2ccc(=O)n(CC(=O)Nc3ccc(C(C)C)cc3)n2)cc1 | inactive: 2.49%
68 | CCOC(=O)c1ccc(NC(=O)CSc2nc(C)c(Cc3ccccc3)c(=O)[nH]2)cc1 | inactive: -4.65%
69 | CCc1cccc(CC)c1N(COC)C(=O)Cn1c(C)nc2ccccc21 | inactive: -25.3%
70 | CCN(CC)CCOC(=O)c1ccc(NC(=O)CSc2cc(=O)n(CC)c3ccccc23)cc1 | inactive: 14.5%
71 | Cc1ccc(-n2nc(C)c3c(C)cc(=O)n(CC(=O)NC(C)C)c32)cc1 | inactive: -4.73%
72 | COCCNC(=O)CCn1c(=O)c2cc(OC)c(OC)cc2n(CC(=O)Nc2ccccc2OC)c1=O | inactive: 6.14%
73 | COc1ccccc1NC(=O)c1c(C)cc(C)nc1SCC(=O)Nc1cccc(C)c1 | inactive: -18.9%
74 | CCc1nn(CC(=O)Nc2ccc(C)cc2C)c(=O)c2cc3sccc3n12 | inactive: -10.9%
75 | O=C(Nc1ccc(F)c(Cl)c1)C1Cc2ccccc2CN1S(=O)(=O)c1ccc(F)cc1 (centres undefined) | inactive: -14.9%
76 | COc1ccc(Nc2ncnc3onc(-c4ccc(Cl)cc4)c23)cc1Cl | inactive: 15.4%
77 | COc1cc(OC)c(NC(=O)c2cnn(-c3cccc(Cl)c3C)c2C2CCN(C(=O)OC(C)(C)C)CC2)cc1Cl | inactive: 6.54%
78 | COc1ccc(-n2cc(-c3ccccc3)c3c(NCc4cccc(Cl)c4)ncnc32)cc1 | inactive: -29.9%
79 | O=C(NCc1ccccc1)c1ccc(NC(=O)N2CCSc3ncccc32)cc1 | inactive: -8.89%
80 | Cc1ccc(NC(=O)c2cn(-c3ccccc3)nc2-c2ccccc2)cc1 | inactive: -18%
81 | CCCCn1c(SCC(=O)Nc2cccc(OC)c2)nc2ccsc2c1=O | inactive: -23.7%
82 | Cc1ccc(C2=NN(CC(=O)NC(C)c3ccccc3)C(=O)CC2)cc1 (centres undefined) | inactive: -17.8%
83 | COc1ccc(-c2cn3nc(N4CCC(C(=O)NCc5ccc(F)cc5)CC4)sc3n2)cc1 | inactive: 0.825%
84 | CC(C)c1ccc(Nc2c(-c3ccc(N4CCOCC4)cc3)nc3ncccn23)cc1 | inactive: -20.1%
